# Test results from the supplement of paper PMC8728848.
# The list shows a part of the results.
# B1: Gal 9 (Homo sapiens), O00182 (protein)
# chain: MAFSGSQAPYLSPAVPFSGTIQGGLQDGLQITVNGTVLSSSGTRFAVNFQTGFSGNDIAFHFNPRFEDGGYVVCNTRQNGSWGPEERKTHMPFQKGMPFDLCFLVQSSDFKVMVNGILFVQYFHRVPFHRVDTISVNGSVQLSYISFQNPRTVPVQPAFSTVPFSQPVCFPPRPRGRRQKPPGVWPANPAPITQTVIHTVQSAPGQMFSTPAIPPMMYPHPAYPMPFITTILGGLYPSKSILLSGTVLPSAQRFHINLCSGNHIAFHLNPRFDENAVVRNTQIDNSWGSEERSLPRKMPFVRGQSFSVWILCEAHCLKVAVDGQHLFEYYHRLRNLPTINRLEVGGDIQLTHVQT
# Assays:
# Experiment in all cases: glycan array binding signal (z-score within array); higher = stronger binding
# Details in all cases: glycan notation: IUPAC condensed, linker removed
# [1] = molecular target: Fuc(a1-2)[Gal(a1-3)]Gal(b1-3)GlcNAc(b1-6)GalNAc
# Method in brief: (§1)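 Glycan array data came from 3228 arrays in the Consortium for Functional Glycomics database, and only arrays with an available protein sequence were kept. Glycan names were put into IUPAC-condensed notation, and columns mapping to the same glycan were averaged. The binding signal is a within-array Z-score, averaged across arrays of one protein sequence run at different concentrations or buffers and across linkers. A negative Z-score can be read as non-binding.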
# [2] = molecular target: Fuc(a1-2)[Gal(a1-3)]Gal(b1-4)Glc
# Method in brief: as §1
# [3] = molecular target: Fuc(a1-2)[Gal(a1-3)]Gal(b1-4)GlcNAc
# Method in brief: as §1
# [4] = molecular target: Fuc(a1-2)[Gal(a1-3)]Gal(b1-4)GlcNAc(b1-2)Man
# Method in brief: as §1
# [5] = molecular target: Fuc(a1-2)[Gal(a1-3)]Gal(b1-4)GlcNAc(b1-2)Man(a1-3)[Fuc(a1-2)[Gal(a1-3)]Gal(b1-4)GlcNAc(b1-2)Man(a1-6)]Man(b1-4)GlcNAc(b1-4)GlcNAc
# Method in brief: as §1
# [6] = molecular target: Fuc(a1-2)[Gal(a1-3)]Gal(b1-4)GlcNAc(b1-2)Man(a1-3)[Fuc(a1-2)[Gal(a1-3)]Gal(b1-4)GlcNAc(b1-2)Man(a1-6)]Man(b1-4)GlcNAc(b1-4)[Fuc(a1-6)]GlcNAc
# Method in brief: as §1
# [7] = molecular target: Fuc(a1-2)[Gal(a1-3)]Gal(b1-4)GlcNAc(b1-3)GalNAc
# Method in brief: as §1
# [8] = molecular target: Fuc(a1-2)[Gal(a1-3)]Gal(b1-4)GlcNAc(b1-6)GalNAc
# Method in brief: as §1
# [9] = molecular target: Fuc(a1-2)[Gal(a1-3)]Gal(b1-4)[Fuc(a1-3)]Glc
# Method in brief: as §1
# [10] = molecular target: Fuc(a1-2)[Gal(a1-3)]Gal(b1-4)[Fuc(a1-3)]GlcNAc
# Method in brief: as §1
# [11] = molecular target: Fuc(a1-2)[Gal(a1-3)]Gal(b1-4)[Fuc(a1-3)]GlcNAc(b1-3)GalNAc
# Method in brief: as §1
# [12] = molecular target: Fuc(a1-2)[Gal(a1-4)]Gal(b1-4)GlcNAc
# Method in brief: as §1
# [13] = molecular target: Fuc(a1-2)[GalNAc(a1-3)]Gal
# Method in brief: as §1
# [14] = molecular target: Fuc(a1-2)[GalNAc(a1-3)]Gal(b1-3)GalNAc(a1-3)[Fuc(a1-2)]Gal(b1-4)GlcNAc
# Method in brief: as §1
# [15] = molecular target: Fuc(a1-2)[GalNAc(a1-3)]Gal(b1-3)GalNAc(b1-3)Gal(a1-4)Gal(b1-4)Glc
# Method in brief: as §1
# [16] = molecular target: Fuc(a1-2)[GalNAc(a1-3)]Gal(b1-3)GlcNAc
# Method in brief: as §1
# [17] = molecular target: Fuc(a1-2)[GalNAc(a1-3)]Gal(b1-3)GlcNAc(b1-2)Man(a1-3)[Fuc(a1-2)[GalNAc(a1-3)]Gal(b1-3)GlcNAc(b1-2)Man(a1-6)]Man(b1-4)GlcNAc(b1-4)GlcNAc
# Method in brief: as §1
# [18] = molecular target: Fuc(a1-2)[GalNAc(a1-3)]Gal(b1-3)GlcNAc(b1-2)Man(a1-3)[Fuc(a1-2)[GalNAc(a1-3)]Gal(b1-3)GlcNAc(b1-2)Man(a1-6)]Man(b1-4)GlcNAc(b1-4)[Fuc(a1-6)]GlcNAc
# Method in brief: as §1
# [19] = molecular target: Fuc(a1-2)[GalNAc(a1-3)]Gal(b1-3)GlcNAc(b1-3)GalNAc
# Method in brief: as §1
# [20] = molecular target: Fuc(a1-2)[GalNAc(a1-3)]Gal(b1-3)GlcNAc(b1-6)GalNAc
# Method in brief: as §1
# [21] = molecular target: Fuc(a1-2)[GalNAc(a1-3)]Gal(b1-4)Glc
# Method in brief: as §1
# [22] = molecular target: Fuc(a1-2)[GalNAc(a1-3)]Gal(b1-4)GlcNAc
# Method in brief: as §1
# [23] = molecular target: Fuc(a1-2)[GalNAc(a1-3)]Gal(b1-4)GlcNAc(b1-2)Man
# Method in brief: as §1
# [24] = molecular target: Fuc(a1-2)[GalNAc(a1-3)]Gal(b1-4)GlcNAc(b1-2)Man(a1-3)[Fuc(a1-2)[GalNAc(a1-3)]Gal(b1-4)GlcNAc(b1-2)Man(a1-6)]Man(b1-4)GlcNAc(b1-4)GlcNAc
# Method in brief: as §1
# [25] = molecular target: Fuc(a1-2)[GalNAc(a1-3)]Gal(b1-4)GlcNAc(b1-2)Man(a1-3)[Fuc(a1-2)[GalNAc(a1-3)]Gal(b1-4)GlcNAc(b1-2)Man(a1-6)]Man(b1-4)GlcNAc(b1-4)[Fuc(a1-6)]GlcNAc
# Method in brief: as §1
# [26] = molecular target: Fuc(a1-2)[GalNAc(a1-3)]Gal(b1-4)GlcNAc(b1-3)Gal(b1-4)GlcNAc
# Method in brief: as §1
# [27] = molecular target: Fuc(a1-2)[GalNAc(a1-3)]Gal(b1-4)GlcNAc(b1-3)Gal(b1-4)GlcNAc(b1-3)Gal(b1-4)GlcNAc
# Method in brief: as §1
# [28] = molecular target: Fuc(a1-2)[GalNAc(a1-3)]Gal(b1-4)GlcNAc(b1-3)GalNAc
# Method in brief: as §1
# [29] = molecular target: Fuc(a1-2)[GalNAc(a1-3)]Gal(b1-4)GlcNAc(b1-3)[Fuc(a1-2)[GalNAc(a1-3)]Gal(b1-4)GlcNAc(b1-6)]GalNAc
# Method in brief: as §1
# [30] = molecular target: Fuc(a1-2)[GalNAc(a1-3)]Gal(b1-4)GlcNAc(b1-6)GalNAc
# Method in brief: as §1
# [31] = molecular target: Fuc(a1-2)[GalNAc(a1-3)]Gal(b1-4)[Fuc(a1-3)]GlcNAc
# Method in brief: as §1
# [32] = molecular target: Fuc(a1-2)[GalNAc(a1-3)]Gal(b1-4)[Fuc(a1-3)]GlcNAc(b1-3)GalNAc
# Method in brief: as §1
# [33] = molecular target: Fuc(a1-2)[GalNAc(a1-4)]Gal(b1-4)GlcNAc
# Method in brief: as §1
# [34] = molecular target: Fuc(a1-2)[GalNAc(b1-3)]Gal
# Method in brief: as §1
# [35] = molecular target: Fuc(a1-3)GlcNAc
# Method in brief: as §1
# [36] = molecular target: Fuc(a1-3)[Gal(b1-4)]Glc6S
# Method in brief: as §1
# [37] = molecular target: Fuc(a1-3)[Gal(b1-4)]GlcNAc
# Method in brief: as §1
binder,measurement,setting,value
B1,glycan array binding signal (z-score),[1],-0.233
same,glycan array binding signal (z-score),[2],-0.288
same,glycan array binding signal (z-score),[3],-0.178
same,glycan array binding signal (z-score),[4],-0.262
same,glycan array binding signal (z-score),[5],0.9
same,glycan array binding signal (z-score),[6],0.875
same,glycan array binding signal (z-score),[7],0.011
same,glycan array binding signal (z-score),[8],-0.307
same,glycan array binding signal (z-score),[9],-0.315
same,glycan array binding signal (z-score),[10],-0.316
same,glycan array binding signal (z-score),[11],-0.318
same,glycan array binding signal (z-score),[12],-0.319
same,glycan array binding signal (z-score),[13],-0.315
same,glycan array binding signal (z-score),[14],-0.317
same,glycan array binding signal (z-score),[15],-0.221
same,glycan array binding signal (z-score),[16],0.055
same,glycan array binding signal (z-score),[17],1.63
same,glycan array binding signal (z-score),[18],3.85
same,glycan array binding signal (z-score),[19],-0.18
same,glycan array binding signal (z-score),[20],1.79
same,glycan array binding signal (z-score),[21],0.482
same,glycan array binding signal (z-score),[22],0.325
same,glycan array binding signal (z-score),[23],1.99
same,glycan array binding signal (z-score),[24],4.39
same,glycan array binding signal (z-score),[25],0.54
same,glycan array binding signal (z-score),[26],1.49
same,glycan array binding signal (z-score),[27],1.85
same,glycan array binding signal (z-score),[28],-0.298
same,glycan array binding signal (z-score),[29],0.963
same,glycan array binding signal (z-score),[30],-0.097
same,glycan array binding signal (z-score),[31],-0.32
same,glycan array binding signal (z-score),[32],-0.288
same,glycan array binding signal (z-score),[33],-0.306
same,glycan array binding signal (z-score),[34],-0.311
same,glycan array binding signal (z-score),[35],-0.32
same,glycan array binding signal (z-score),[36],-0.321
same,glycan array binding signal (z-score),[37],-0.315
